# Biological target: T1, KDM4E (Homo sapiens, UniProt B2RXH2)
# T1 construct: KDM4E1–337; made in house; host or cells: E. coli
# T1 sequence (B2RXH2 1-337): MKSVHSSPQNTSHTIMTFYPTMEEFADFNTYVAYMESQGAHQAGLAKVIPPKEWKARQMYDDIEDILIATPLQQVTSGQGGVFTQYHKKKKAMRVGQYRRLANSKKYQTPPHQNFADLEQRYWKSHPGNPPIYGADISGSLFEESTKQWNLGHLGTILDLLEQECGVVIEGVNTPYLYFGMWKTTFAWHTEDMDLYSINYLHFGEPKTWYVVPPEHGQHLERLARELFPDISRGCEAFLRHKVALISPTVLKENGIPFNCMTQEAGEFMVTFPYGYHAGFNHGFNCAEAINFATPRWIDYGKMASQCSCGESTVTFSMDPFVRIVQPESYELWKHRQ
# Test: Specific hydroxylation activity of KDM4E
# Format: biochemical
# Experimental: Fig. 3 KDM4E-catalysed hydroxylation occurs at Arg-20 on histone H2a peptide. a LC–MS/MS analysis of H2a(1–20) after KDM4E treatment. Two potential hydroxylation sites, R17 and R20, were identified, with the latter more likely (Supplementary Fig. 9). b Peptide variant studies support Arg-20 hydroxylation; specific activities: H2a(1–20), 0.65 nmol min^−1 mg^−1 SD: 0.073; H2a(1–20) with a C-terminal carboxylic acid (indicated with an -OH), no activity; H2a(1–20)R20A, no activity; H2a(1–20)R20K*, no activity; H2a(1–20)R20Kme3*, 0.44 nmol min^−1 mg^−1 SD: 0.04; H2a(1–20)R3me2a*, 0.51 nmol min^−1 mg^−1 SD: 0.05; H2a(1–20)R3A, 0.37 nmol min^−1 mg^−1 SD: 0.002; H2a(1–21)*, 0.65 nmol min^−1 mg^−1 SD 0.02; H2a(1–25, 0.35 nmol min^−1 mg^−1 SD: 0.044; and H2a(10–29), 0.02 nmol min^−1 mg^−1 SD: 0.013. Measurements employed MALDI–TOF MS except when labelled with*, which employed LC–MS (Supplementary Fig. 10 for representative MS data). n = 3 independent assays. c KDM, RDM and hydroxylation (+16 Da) activities of KDM4E are sequence and context dependent. Histone peptides (H2a, H3, H4) and variants (wild type residue in red, replaced with either K, Kme3, R or Rme2a) were incubated with KDM4E and analysed on MALDI–TOF MS. KDM, RDM and hydroxylation (+16 Da) were detected in some but not all peptides (Supplementary Fig. 10 for representative MS data). (−) No mass changes observed. n = 3 independent assays. See Supplementary Table 6 for conditions. TEXT PRINTED IN THE PICTURE: (c) H2a: K/R replacement K: -; K/R replacement Kme3: KDM/ROH; K/R replacement R: ROH; K/R replacement Rme2a: KDM/ROH | (c) H3: K/R replacement K: -; K/R replacement Kme3: KDM; K/R replacement R: -; K/R replacement Rme2a: RDM | (c) H4: K/R replacement K: -; K/R replacement Kme3: -; K/R replacement R: -; K/R replacement Rme2a: RDM DOUBTS OF THE COPYIST ABOUT THIS PICTURE: Panel c: the table cells are qualitative activity classes (KDM, RDM, ROH, -) for peptide variants, not numbers; it is uncertain whether they count as results. / Panel b: the bar chart prints no values beside the bars, so nothing was taken from it.
# MS-based screening assays with peptides and calf thymus histones were as reported; see Supplementary Table 6 for conditions. Time course assays were based on reported procedures. In brief, equal volumes of the enzyme and substrate solutions were combined to initiate the reaction; 10 µL of 2% (v/v) formic acid (HCOOH) in ddH2O or 100% methanol was added to 10 µL of the reaction mixture to quench reactions at different time points. Unless otherwise stated, time course assays were carried out in triplicate. In some cases, LC–MS was used instead of MALDI-TOF MS to avoid a MALDI matrix induced artefact with the hydroxylated product (Supplementary Fig. 16).
# Data collected from time course assay(s) were used to plot the % conversion vs time (min) using GraphPad Prism5 version 5.04; the resultant slopes were used to fit a line with linear regression to the first-order region of the reaction. The resultant gradient was then converted from % product formation min^−1 to amount of peptide converted (demethylation and / or hydroxylation) in µM.
# Supplementary Figure 17 Comparison of specific hydroxylation activities of KD M4E with H2a(1–20) when anal ysed by MALDI-TO F MS or LC–MS. Comparison of specific activities for KDM4E catalysed hydroxylation of H2a(1–20) when analysed with MALDI-TOF MS or LC–MS ([…] SD: 0.073 and 0.65 nmol·min−1·mg− 1 SD: 0.01 respectively). n = 3 (independent assays). See Supplementary Table 6 for assay […]
# (also on this page, place not known: KDM4E H2a(1 –20) analysed MALDI -TOF LC –MS nmol·min −1·mg−1 nmol·min−1·mg−1 0.8specific activity (nmol·min-1·mg-1)) […]
# [ E nz ym e] [Peptide] [2OG] [Ascorbate] [(NH4)2F e(S O4)2] [TCEP] Buffer pH7.5 Enzyme Cognate substrate (mM) (mM) (mM) (mM) (mM) (mM) [HE PE S]
# Supplementary Table 6 Summary of MS assay conditions for substrate screening. These conditions […]
substance,measurement,setting,value
"Ac - SGR [ me 2a ] GKQ GGKAR AKAKT R SSR [H2a(1–20)R3me2a, H2a(1–20)R3me2a without a biotin tag]",specific activity (hydroxylation),"Figure 3b, LC–MS (*), replicate 1",0.4739 nmol/min/mg
same,specific activity (hydroxylation),"Figure 3b, LC–MS (*), replicate 2",0.5839 nmol/min/mg
same,specific activity (hydroxylation),"Figure 3b, LC–MS (*), replicate 3",0.4739 nmol/min/mg
same,extent of hydroxylation (in words),"KDM4E, relative to H2a(1–20)",substantial reduction in hydroxylation activity was not observed
same,specific activity (hydroxylation),"LC–MS (marked *), mean of n = 3, SD: R20Kme3 0.04, R3me2a 0.05, H2a(1–21) 0.02",0.51 nmol/min/mg
